Reference: the supplement of paper PMC7238544
Counter-ions that a name gives are not always drawn. ± gives the standard deviation of the averaged measurements. The list shows a part of the results.

Test system: hAMSC donor 1
Test: Hoechst total cell count ratio vs vehicle control; hAMSC are human adipose-derived mesenchymal stem cells given an EGFP-luciferase plasmid by lipofection; higher = more cells (less toxicity)
Details: priming compound concentration 100 µM
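Further: compound added 30 min before Lipofectamine 3000 lipoplex delivery, triplicate-well means expressed against DMSO vehicle control wells of the same 96-well plate.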

Structure (SMILES)	Hoechst total cell count ratio
CC(C)(C)NCC(O)c1cc(O)cc(O)c1 (stereo not drawn) [Terbutaline sulfate]	1.08 ± 0.11
CC1=C(/C=C/C(C)=C/C=C/C(C)=C\C(=O)O)C(C)(C)CCC1 [Isotretinoin]	2.09 ± 0.51
CC[C@H](C)C(=O)O[C@H]1C[C@@H](C)C=C2C=C[C@H](C)[C@H](CC[C@@H]3C[C@@H](O)CC(=O)O3)[C@H]21 [Lovastatin]	0.78 ± 0.075
CN1CCC(=C2c3ccccc3C=Cc3ccccc32)CC1 [Cyproheptadine hydrochloride]	0.678 ± 0.11
C=CCc1ccc(O)c(-c2ccc(O)c(CC=C)c2)c1 [Honokiol]	0.297 ± 0.27
CC(C)Oc1ccc2c(=O)c(-c3ccccc3)coc2c1 [Ipriflavone]	1.2 ± 0.03
CC[C@@]1(O)C(=O)OCc2c1cc1n(c2=O)Cc2cc3c(CN(C)C)c(O)ccc3nc2-1 [Topotecan hydrochloride]	0.588 ± 0.13
CN(C)CCCSc1ccccc1NC(=O)/C=C/c1ccccc1 [Cinanserin]	1.1 ± 0.06
CC(=O)OCC(CCn1cnc2cnc(N)nc21)COC(C)=O [Famciclovir]	1.2 ± 0.26
C[C@](N)(Cc1ccc(O)cc1)C(=O)O [alpha-Methyl-L-tyrosine]	1.4 ± 0.086
C=CC1=C(C(=O)O)N2C(=O)[C@@H](NC(=O)/C(=N\O)c3csc(N)n3)[C@H]2SC1 [Cefdinir]	1.19 ± 0.32
COc1ccc(CC(C)NCC(O)c2ccc(O)c(NC=O)c2)cc1 (stereo not drawn) [Formoterol fumarate dihydrate]	1.46 ± 0.34
Cc1nc(=O)c2cc(CN(C)c3ccc(C(=O)N[C@@H](CCC(=O)O)C(=O)O)s3)ccc2[nH]1 [Raltitrexed]	1.43 ± 0.21
